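Grown in 96-well plates, cells were treated for 48 hours with each compound at five concentrations. Insufficient inhibition: endpoint recorded as highest concentration tested. At the GI50, growth is halved. TGI is the concentration that stops growth completely.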
system: NCI-H322M lung; assay: NCI anticancer screen, dose series, 48 h

| Compound | GI50 | TGI |
| --- | --- | --- |
| O=C(CNc1nc(-c2cccc([N+](=O)[O-])c2)cs1)Nc1cccc([N+](=O)[O-])c1 | 2320 nM | 6.03 µM |
| COc1cc(-c2ccc3ncnc(NCc4ccccc4)c3c2)cnc1OC | 2770 nM | 25.5 µM |
| NC(N)=Nc1ccc(Oc2cccc(NC(N)=Nc3ccc(Cl)c(C(F)(F)F)c3)c2)cn1 | 1690 nM | 3.85 µM |
| Cc1ccc(C(=O)Nc2ccc(CNCCN3CCNCC3)c(C(F)(F)F)c2)cc1C#Cc1cnc2cccnn12 | 1850 nM | 3.6 µM |

From PubChem BioAssay (NCI)
